Test results as given in patent US20190241639A1 (ZHEJIANG DOER BIOLOGICS, published 2019).

B1: GLP-2 mutant fusion protein SEQ ID NO:23 (Fc fusion)
chain: HGDGSFSDEMNTILDNLAARDFINWLIQTKITDPSSGAPPPS[human IgG4 Fc with S228P N297A (EU numbers) omitted]
B2: GLP-2 mutant fusion protein SEQ ID NO:29 (Fc fusion)
chain: HGDGSFSDEMNTILDNLAARDFINWLIQTKPSSGAPPPSGGGGSGPA[human IgG4 Fc with S228P N297A (EU numbers) omitted]
B3: GLP-2 mutant fusion protein SEQ ID NO:26 (Fc fusion)
chain: HGDGSFSDEMNTILDNLAARDFINWLIPSSGAPPPSGGGGS[human IgG4 Fc with S228P N297A (EU numbers) omitted]

Molecular target: GLP-2 receptor
Experiment: cell-based or functional assay

**Q.** For B1, which “EC50 (nM), luciferase reporter gene assay in GLP-2R/Luc-CHO cells” value (shortened to “EC50 (nM)”) is on record?
**A.** 82.4 nM

**Q.** Which “EC50 (nM)” value does the source give for B2 here?
**A.** 27.3 nM

**Q.** How did the “EC50 (nM)” value turn out when B3 was run?
**A.** 81.7 nM
